Laboratory results taken from PubChem BioAssay AID485294 (National Center for Advancing Translational Sciences (NCATS), 2010).
Out of some 370,000 compounds screened, about 150 (0.041%) were called active. The inconclusive results got no clear call from the source; some entries with a clear call stand among them for comparison. The call rests on the fitted dose curve; in most records, active means well fitted inhibition curve with a large enough effect; inconclusive means small, poorly fitted or top-dose-only effect; inactive means flat fitted curve, though single readings scatter. Potencies of inconclusive entries are left out as doubtful fits.

What follows are compounds tested against Beta-lactamase (Escherichia coli (strain K12)) (UniProt P00811) (assay: qHTS Inhibitors of AmpC Beta-Lactamase (assay with detergent)). Conditions: AmpC hydrolysis of nitrocefin, absorbance 480 nm, 0.01% Triton; activity change, negative = inhibition: at 114 µM (top of the series).
Summary of the method: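 AmpC (5.3 nM in the dispensed reagent) in 20 mM phosphate pH 7.0 with 0.01% (detergent screen) or 0.0001% Triton X-100 was preincubated with compounds for 15 min at room temperature. Nitrocefin was then added from an 800 uM solution, and hydrolysis was followed at 480 nm.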
Further: nearly all actives have a fitted effect of over 25% in size.
Potency means the concentration at half of the fitted maximal effect; tags describe the fitted curve by direction and shape.
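Wherever activity change, negative = inhibition is given: 0% = no-compound wells and -100% = no-enzyme wells.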

Chain of UniProt P00811 (P00811 whole entry, looked up): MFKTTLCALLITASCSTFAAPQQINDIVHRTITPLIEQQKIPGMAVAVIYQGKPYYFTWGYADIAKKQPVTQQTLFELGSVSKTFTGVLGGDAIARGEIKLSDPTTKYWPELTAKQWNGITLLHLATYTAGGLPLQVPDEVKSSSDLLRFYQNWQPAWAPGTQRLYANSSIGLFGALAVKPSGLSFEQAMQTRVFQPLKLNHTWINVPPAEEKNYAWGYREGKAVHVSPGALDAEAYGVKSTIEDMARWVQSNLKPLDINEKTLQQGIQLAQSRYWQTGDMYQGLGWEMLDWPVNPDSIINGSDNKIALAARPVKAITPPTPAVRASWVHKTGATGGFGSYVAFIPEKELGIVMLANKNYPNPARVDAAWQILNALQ

Compound | Potency | activity change, negative = inhibition
Cc1ccc(OS(=O)Nc2cccc3nccnc23)cc1 (stereo not drawn) | inconclusive [inhibitor, partial curve, poor fit] | 
CSc1ccc(S(=O)(=O)Nc2c(C)cccc2C)cc1 | inconclusive [inhibitor, single point] | 
Cc1ccc(NC(=O)C2Cc3ccccc3CN2C(=O)c2ccccc2)cc1Cl (stereo not drawn) | inconclusive [inhibitor, full curve, poor fit] | 
Cn1cc(S(=O)(=O)N2CCCCCC2)cc1C(=O)N1CCN(c2cccc(Cl)c2)CC1 |  | inactive: -1.53%
CCOCCCNC(=O)C1CCN(S(=O)(=O)N2CCCCC2)CC1 |  | inactive: 3.42%
Cc1ccc(CNC(=O)C2CCN(c3nc4ccccc4n(C)c3=O)CC2)cc1 |  | inactive: 0.718%
O=[N+]([O-])c1cc(-c2nc(-c3ccccc3)no2)ccc1N1CCN(c2ccccc2)CC1 | inconclusive [inhibitor, single point] | 
CCNC(=S)N1CCNC(=O)C1CC(=O)OC (stereo not drawn) | inconclusive [inhibitor, full curve] | 
COC(=O)c1sc2ncn(-n3c(C)ccc3C)c(=O)c2c1C | inconclusive [inhibitor, full curve, poor fit] | 
C/C=C(\C)CN1CCC(Oc2cccc(C(=O)NCc3ccccn3)c2)CC1 | inconclusive [inhibitor, full curve, poor fit] | 
CCOC(=O)c1noc2ncnc(Nc3ccc(F)cc3F)c12 |  | inactive: 0.992%
CCn1c(SCC(=O)NCCc2ccc(Cl)cc2)nnc1-c1cccs1 | inconclusive [inhibitor, full curve, poor fit] | 
CCc1ccc(NC(=O)C2CCN(S(=O)(=O)c3ccc4[nH]c5c(c4c3)CCCCC5)CC2)cc1 |  | inactive: 2%
CC(C)[C@H](NC(=O)[C@@H]1Cc2ccccc2CN1C(=O)OC(C)(C)C)C(=O)NCc1ccco1 | inconclusive [inhibitor, single point] | 
Cc1cccnc1Nc1nc(-c2ccc(O)cc2O)cs1 |  | inactive: 2.25%
Cc1ccn2cc(CCNS(=O)(=O)c3ccc4c(c3)OCCO4)nc2c1 | inconclusive [inhibitor, full curve] | 
CCOC(=O)c1cccc(NC(=O)N[C@@H](C)C(=O)OC)c1 | inconclusive [inhibitor, full curve, poor fit] | 
COc1ccc(C(C)=O)cc1CN(c1ccccc1OC)S(=O)(=O)c1cccs1 | inconclusive [inhibitor, full curve] | 
CCn1c(SCC(=O)O)nnc1-c1ccccc1OC |  | inactive: -9.18%
COc1ccccc1NS(=O)(=O)c1ccc(C(=O)OCC(=O)NCc2ccco2)cc1 | inconclusive [inhibitor, full curve, poor fit] | 
CCCCc1cc(=O)oc2cc(OCC(=O)N3C[C@H]4C[C@@H](C3)c3cccc(=O)n3C4)ccc12 |  | inconclusive: -16.8% [inhibitor]
C1CN(CC2CCN(c3nc4nonc4nc3N3CCSCC3)CC2)CCO1 |  | inactive: 1.19%

Compound | Potency | activity change, negative = inhibition
O=C(NNC1=C(C(=O)C(F)(F)F)CCC1)c1ccccc1O |  | inactive: 3.76%
CC(=O)Nc1ccccc1-c1nn[nH]n1 | inconclusive [inhibitor, full curve, poor fit] | 
Oc1ccccc1-c1cc(-c2cccc(F)c2)n[nH]1 | inconclusive [inhibitor, full curve, poor fit] | 
CCc1ccc(OCC(=O)Nc2ccncc2)c(Br)c1 | inconclusive [inhibitor, full curve] | 
O=C(NNC(=S)NC(=O)c1cccnc1)c1ccc(Cl)cc1 | inconclusive [inhibitor, full curve, poor fit] | 
CC1c2nc3ccccc3n2C(CC(=O)NCc2ccccn2)C(=O)N1Cc1ccccc1 (stereo not drawn) | inconclusive [inhibitor, single point] | 
NS(=O)(=O)c1ccc(CCNCc2cc(Cl)ccc2OCc2ccccc2)cc1 | inconclusive [inhibitor, single point] | 
COc1ccc(F)cc1CSc1nnnn1-c1ccc(O)cc1 | inconclusive [inhibitor, full curve, poor fit] | 
O=[N+]([O-])c1cc(C(F)(F)F)cc([N+](=O)[O-])c1N1CCN(S(=O)(=O)c2ccccc2)CC1 |  | inactive: -5.14%
O=C(NC1CCCCC1)C(c1cccs1)N(C(=O)Cc1c[nH]c2ccccc12)c1ccc(F)cc1 (stereo not drawn) |  | inactive: -10.4%
Cc1ccc2oc(-c3cccc(NC(=O)c4ccc(Br)o4)c3C)nc2c1 | inconclusive [inhibitor, full curve, poor fit] | 
Cc1[nH]c2ccc(O)cc2c1CCN | inconclusive [inhibitor, full curve, poor fit] | 
COc1ccc(Br)cc1/C=N/N1CCN(Cc2ccccc2Cl)CC1 | inconclusive [inhibitor, partial curve, poor fit] | 
O=C(Cc1nnc(NC(=O)c2ccccc2)s1)N/N=C/c1cccc(O)c1 | inconclusive [inhibitor, partial curve] | 
C=CCn1c(=O)c(C(=O)Nc2ncccc2O)c(O)c2ccccc21 | inconclusive [inhibitor, full curve, poor fit] | 
COCc1nnc(NC(=O)c2ccc(Cl)cc2[N+](=O)[O-])s1 | inconclusive [inhibitor, full curve] | 
O=C(NCCS(=O)(=O)N1CCCCC1)c1ccc2c(c1)OCO2 | inconclusive [inhibitor, partial curve] | 
Cn1c(=O)cc(SCC(=O)N2CCN(c3ccc(F)cc3)CC2)c2ccc(Cl)cc21 |  | inactive: 5.29%
COc1cc(C2CC(=O)c3c([nH]c(C(=O)OCCOC(C)C)c3C)C2)cc(OC)c1OC (stereo not drawn) | inconclusive [inhibitor, full curve, poor fit] | 
C/C(=N\NC(=O)COc1ccc(C(C)(C)C)cc1)c1cc2ccccc2o1 |  | inactive: -7.48%
CN(CC(=O)Nc1ccc(Cl)c(Cl)c1)C(=O)C12CC3CC(CC(C3)C1)C2 | inconclusive [inhibitor, full curve, poor fit] | 
